# Measured values reported in PubChem BioAssay AID588453 (National Center for Advancing Translational Sciences (NCATS), 2011).
# Values joined by “and” are separate entries in the source; they are usually repeats but may differ in a detail not shown here. Equal values may be shown once. Out of some 390,000 compounds screened, about 4,000 (1%) were called active. Inconclusive results, whose numbers are uncertain, are shown with a selection of clear calls. Calls come from the whole dose curve; as a rule, active = well fitted inhibition curve with a large enough effect; inconclusive = small, poorly fitted or top-dose-only effect; inactive = no such curve, though single readings can be large or run the other way. A potency beside an inconclusive call is a rough fit, not a confirmed value.
# Biological target: Thioredoxin reductase 1, cytoplasmic (Rattus norvegicus) (UniProt O89049)
# Chain of UniProt O89049 (O89049 whole entry, looked up): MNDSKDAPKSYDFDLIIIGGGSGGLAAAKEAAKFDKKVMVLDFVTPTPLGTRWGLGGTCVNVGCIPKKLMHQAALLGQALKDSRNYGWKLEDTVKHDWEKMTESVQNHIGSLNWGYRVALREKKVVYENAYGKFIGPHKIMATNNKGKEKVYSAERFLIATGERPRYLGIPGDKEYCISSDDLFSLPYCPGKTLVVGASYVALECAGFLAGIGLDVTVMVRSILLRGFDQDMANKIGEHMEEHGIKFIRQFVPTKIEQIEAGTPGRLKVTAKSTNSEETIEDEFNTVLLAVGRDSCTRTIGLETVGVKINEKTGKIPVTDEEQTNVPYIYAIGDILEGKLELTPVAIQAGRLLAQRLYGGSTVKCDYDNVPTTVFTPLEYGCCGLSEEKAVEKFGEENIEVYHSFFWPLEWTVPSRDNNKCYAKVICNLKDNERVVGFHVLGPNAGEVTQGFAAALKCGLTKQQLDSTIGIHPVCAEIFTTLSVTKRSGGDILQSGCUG
# Assay: qHTS Assay for Inhibitors of Mammalian Selenoprotein Thioredoxin Reductase 1 (TrxR1): qHTS; note: nearly all actives have a fitted effect of over 65% in size
# Details: recombinant rTrxR1, NADPH fluorescence consumption, selenite substrate; series mostly up to 114 µM; activity change, negative = inhibition: at the top concentration
# Summary of the method: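 Rat TrxR1 (90 nM in the dispensed reagent) was pre-reduced with 400 uM NADPH for 5 min at room temperature, then incubated with compound for 15 min. After 400 uM selenite was added, NADPH fluorescence (Ex 340/Em 450 nm) was followed for 8 min.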
# % is set by controls: 0 for no effect and ±100 for the full control effect; potency is the fitted concentration of half-maximal effect; tags give direction and shape of the fitted curve.
SMILES,Potency,"activity change, negative = inhibition"
CCC(=NCCN1CCOCC1)c1c(O)n(-c2ccccc2C)c(=O)[nH]c1=O,"inconclusive: 31.6 µM [inhibitor, single point]",
Cc1ccc(CC2C(=O)N(C)C(=O)N(C)C2=O)s1,"inconclusive: 31.6 µM [inhibitor, single point]",
CC(=NCc1ccco1)c1c(O)n(-c2ccccc2C)c(=O)[nH]c1=O,"inconclusive: 20 µM [inhibitor, single point]",
CN1C(=O)C(=Cc2coc3ccccc3c2=O)C(=O)N(C)C1=O,"inconclusive: 44.7 µM [inhibitor, partial curve, poor fit]",
CN(C)c1ccc(N=O)cc1,active: 5.01 µM,
CN1C2CC(OC(=O)C(CO)c3ccccc3)CC1C1OC12 (stereo unspecified),inactive,
CN1CCc2c(C#N)c(Cl)nc(Cl)c2C1,"inconclusive: 11.2 µM [inhibitor, partial curve]",
CNCC(O)c1ccc(O)cc1 (stereo unspecified),"inconclusive: 79.4 µM [inhibitor, single point] and inconclusive: 18.9 µM [inhibitor, partial curve]",
O=C(COc1ccccc1Cl)N1CCN(CCc2ccncc2)CC1,"inconclusive: 20 µM [inhibitor, full curve]",
O=C(CF)NC(NC(=S)Nc1cccc([N+](=O)[O-])c1)C(Cl)(Cl)Cl (stereo unspecified),"inconclusive: 44.7 µM [inhibitor, partial curve, poor fit]",
C[C@]12CCC(=O)C=C1CC[C@@H]1[C@@H]2CC[C@@]2(C)[C@H]1CC[C@]2(C)O,"inconclusive: 70.8 µM [inhibitor, partial curve]",
O=C(Cc1ccc(N(CCCl)CCCl)cc1)NC(Cc1ccc(Cl)cc1)C(=O)O (stereo unspecified),active: 39.8 µM,
Cc1ccc(N2C(=O)NC(=O)C3(Cc4ccccc4N4CCN(c5ccccc5)CC43)C2=O)cc1 (stereo unspecified),"inconclusive: 11.2 µM [inhibitor, partial curve, poor fit]",
CC(C)C[C@H]1C(=O)N2CCC[C@H]2[C@]2(O)O[C@](NC(=O)[C@@H]3C=C4c5cccc6[nH]c(Br)c(c56)C[C@H]4N(C)C3)(C(C)C)C(=O)N12,"inconclusive: 20 µM [inhibitor, partial curve, poor fit]",
O=C(Oc1cncc(Cl)c1)c1sccc1Cl,"inconclusive: 50.1 µM [inhibitor, partial curve]",
O=C(OC1CCN(CCCl)CC1)C(c1ccccc1)c1ccccc1,"inconclusive: 37.7 µM [inhibitor, single point]",
COc1cccc(-n2c(O)c(C=NCCN3CCOCC3)c(=O)[nH]c2=O)c1,"inconclusive: 89.1 µM [inhibitor, single point]",
C[C@]12CC[C@@H]3c4ccc(O)c(O)c4CC[C@H]3[C@@H]1CC[C@@H]2O,"inconclusive: 20 µM [inhibitor, full curve]",
O=C1NC(=O)N(Cc2ccco2)C(=O)/C1=C/C=C/c1ccco1,active: 35.5 µM,
CC(C)c1ccc(-n2c(O)c(/C=N/NC(=O)c3ccncc3)c(=O)[nH]c2=O)cc1,"inconclusive: 79.4 µM [inhibitor, partial curve, poor fit]",
COc1cc(OC)c(OC)cc1/C=C1\C(=O)NC(=O)N(Cc2ccccc2)C1=O,"inconclusive: 20 µM [inhibitor, partial curve, poor fit]",

SMILES,Potency,"activity change, negative = inhibition"
CNCCCN1c2ccccc2CCc2ccccc21,"inconclusive: 3.36 µM [inhibitor, partial curve, poor fit]",
COc1ccc(C=C2C(=O)N(C)C(=O)N(C)C2=O)cc1CSc1ccccn1,"inconclusive: 25.1 µM [inhibitor, single point]",
Oc1ccc2c3c1O[C@H]1c4oc5ccccc5c4C[C@@]4(O)C(C2)N(CC2CC2)CCC314 (stereo partly specified),"inconclusive: 25.1 µM [inhibitor, full curve, poor fit]",
CCN(CCCl)c1cc(CN(C)C)cc(NC(=O)c2ccc(C(=O)Nc3cc(CN(C)C)cc(N(CC)CCCl)c3)cc2)c1,"inconclusive: 31.6 µM [inhibitor, full curve, poor fit]",
Cc1ccc(OCCOc2cccc(C=C3C(=O)NC(=O)NC3=O)c2)cc1,"inconclusive: 10 µM [inhibitor, partial curve, poor fit]",
CCOC(=O)C1=CC(=C2C(=O)N(CC)C(=S)N(CC)C2=O)c2ccccc2O1,active: 39.8 µM,
CC(=O)c1ccc(OCC(=O)N2CCCC(N3CCN(c4ccccc4C)CC3)C2)cc1 (stereo unspecified),"inconclusive: 79.4 µM [inhibitor, single point]",
CN1C(=O)/C(=C/c2cccn2-c2ccc3ccccc3c2)C(=O)NC1=S,"inconclusive: 8.91 µM [inhibitor, partial curve]",
CCN(CCCl)Cc1ccccc1Br,"inconclusive: 20 µM [inhibitor, full curve] and inconclusive: 26.7 µM [inhibitor, partial curve, poor fit] and inconclusive: 2.99 µM [inhibitor, full curve, poor fit]",
CNC(=O)Oc1cccc(-c2cn3cc(OC(=O)NC)ccc3n2)c1,"inconclusive: 56.2 µM [inhibitor, partial curve]",
COc1ccc(OC)c(-n2c(O)c(/C=C3\C(C)=Nc4ccccc43)c(=O)[nH]c2=O)c1,,inactive: 4.88% [at 11.4 µM]
CCCCc1ccc(NC(=O)c2cccn(Cc3ccc(Cl)cc3)c2=O)cc1,,inactive: 16.9% [at 57.1 µM]
CC1=NNC(=O)C1Br (stereo unspecified),"inconclusive: 89.1 µM [inhibitor, single point]",
Cc1noc(C)c1C(=O)N1CCC2(CC1)Oc1ccc(F)cc1C(=O)C21CC(c2ccc(Cl)cc2)=NO1 (stereo unspecified),"inconclusive: 70.8 µM [inhibitor, single point]",
Cc1cccc(OCCn2cccc2/C=C2/C(=O)NC(=O)N(Cc3ccco3)C2=O)c1,active: 35.5 µM,
COc1cc(/C=C/C(=O)c2c(O)n(CCc3ccccc3)c(=O)[nH]c2=O)ccc1O,"inconclusive: 70.8 µM [inhibitor, partial curve]",
CCOC(=O)Nc1ccc(NCc2ccc(F)cc2)nc1N,active: 79.4 µM and active: 10.6 µM,
Cc1ccc(OCC(=O)N2CCN(CCc3ccncc3)CC2)cc1C,active: 79.4 µM,
O=C1CC(N(O)c2ccccc2)C(=O)N1Cc1ccccc1 (stereo unspecified),"inconclusive: 89.1 µM [inhibitor, partial curve, poor fit]",
COCc1cc(OC(=O)N(C)C)nc(-c2ccc(C)c(Cl)c2)n1,,inactive: -11.1%
Cc1cc(O)c2c(c1)C(=O)c1cc(O)cc(O)c1C2=O,"inconclusive: 20 µM [inhibitor, partial curve, poor fit] and inconclusive: 4.23 µM [inhibitor, full curve]",

SMILES,Potency,"activity change, negative = inhibition"
S=c1[nH]nc(-c2cccs2)n1C1CCCCC1,"inconclusive: 2.82 µM [inhibitor, partial curve]",
O=C1NC(=O)C(=Cc2ccc(-c3ccc(F)cc3O)o2)C(=O)N1,"inconclusive: 28.2 µM [inhibitor, partial curve, poor fit]",
CN1C(=O)C(=Cc2ccc(SC3CCCCC3)o2)C(=O)N(C)C1=O,"inconclusive: 25.1 µM [inhibitor, single point]",
CC(=O)c1cc(C(C)=O)c(C)[n+](C)c1C,"inconclusive: 22.4 µM [inhibitor, single point]",
CC1CC(C)OP(=O)(OCCC#N)O1 (stereo unspecified),,inactive: 16.6%
Cn1cccc1/C=C1/C(=O)NC(=S)N(Cc2ccc(F)cc2)C1=O,active: 44.7 µM,
CCOc1ccc(-n2c(-c3cccs3)nc3ccccc3c2=O)cc1,,inactive: 22.5%
COC12C(COC(N)=O)C3=C(C(=O)C(C)=C(N)C3=O)N1CC1C2N1C (stereo unspecified),"inconclusive: 56.2 µM [inhibitor, single point]",
CNC(=O)Oc1ccc2c(c1)[C@]1(C)CCN(C)[C@@H]1N2C,"inconclusive: 29.9 µM [inhibitor, partial curve]",
COCCCNC(=O)c1c(NC(=O)c2ccco2)n(Cc2ccccc2)c2nc3ccccc3nc12,"inconclusive: 39.8 µM [inhibitor, single point]",
O=C1NC(=O)N(CCc2ccc(F)cc2)C(=O)/C1=C/c1cccs1,"inconclusive: 17.8 µM [inhibitor, partial curve]",
COc1ccc(CCNCc2ccc(OC)c(OC)c2OC)cc1,"inconclusive: 39.8 µM [inhibitor, single point]",
COC(=O)C1=C(C)NC(C)=C(C(=O)OC)C1c1ccccc1[N+](=O)[O-],"inconclusive: 29.9 µM [inhibitor, partial curve, poor fit]",
COc1ccc(OC)c(N2C(=O)NC(=O)/C(=C\c3ccc([N+](=O)[O-])s3)C2=O)c1,"inconclusive: 50.1 µM [inhibitor, partial curve]",
O=C1NC(=O)C(=CCc2ccccc2)C(=O)N1,"inconclusive: 50.1 µM [inhibitor, partial curve]",
CC(C)n1c(=O)c(C=Nc2ccc(S(N)(=O)=O)cc2)c(O)n(Cc2ccco2)c1=O,"inconclusive: 35.5 µM [inhibitor, partial curve]",
CC1(C)CC2CCC(O)C2C(CCO)N1 (stereo unspecified),,inactive: 9.07%
Cc1ccc(NC(=S)NC2CC3CCC(C2)N3Cc2ccco2)cc1C (stereo unspecified),"inconclusive: 2.24 µM [inhibitor, partial curve, poor fit]",
O=c1[nH]c(=O)n(Cc2ccc(F)cc2)c(O)c1C=NCCCN1CCOCC1,"inconclusive: 44.7 µM [inhibitor, partial curve]",
